Laboratory results from the supplement of paper PMC3334620.
The full ranking holds about 33,000 sequences; the median of “E-score (-0.5 to 0.5)” is about -0.035, and the highest 2% start at about 0.35. The list shows a part of the results.

Molecular target: T1, Pdr3 (UniProt P33200)
T1 sequence: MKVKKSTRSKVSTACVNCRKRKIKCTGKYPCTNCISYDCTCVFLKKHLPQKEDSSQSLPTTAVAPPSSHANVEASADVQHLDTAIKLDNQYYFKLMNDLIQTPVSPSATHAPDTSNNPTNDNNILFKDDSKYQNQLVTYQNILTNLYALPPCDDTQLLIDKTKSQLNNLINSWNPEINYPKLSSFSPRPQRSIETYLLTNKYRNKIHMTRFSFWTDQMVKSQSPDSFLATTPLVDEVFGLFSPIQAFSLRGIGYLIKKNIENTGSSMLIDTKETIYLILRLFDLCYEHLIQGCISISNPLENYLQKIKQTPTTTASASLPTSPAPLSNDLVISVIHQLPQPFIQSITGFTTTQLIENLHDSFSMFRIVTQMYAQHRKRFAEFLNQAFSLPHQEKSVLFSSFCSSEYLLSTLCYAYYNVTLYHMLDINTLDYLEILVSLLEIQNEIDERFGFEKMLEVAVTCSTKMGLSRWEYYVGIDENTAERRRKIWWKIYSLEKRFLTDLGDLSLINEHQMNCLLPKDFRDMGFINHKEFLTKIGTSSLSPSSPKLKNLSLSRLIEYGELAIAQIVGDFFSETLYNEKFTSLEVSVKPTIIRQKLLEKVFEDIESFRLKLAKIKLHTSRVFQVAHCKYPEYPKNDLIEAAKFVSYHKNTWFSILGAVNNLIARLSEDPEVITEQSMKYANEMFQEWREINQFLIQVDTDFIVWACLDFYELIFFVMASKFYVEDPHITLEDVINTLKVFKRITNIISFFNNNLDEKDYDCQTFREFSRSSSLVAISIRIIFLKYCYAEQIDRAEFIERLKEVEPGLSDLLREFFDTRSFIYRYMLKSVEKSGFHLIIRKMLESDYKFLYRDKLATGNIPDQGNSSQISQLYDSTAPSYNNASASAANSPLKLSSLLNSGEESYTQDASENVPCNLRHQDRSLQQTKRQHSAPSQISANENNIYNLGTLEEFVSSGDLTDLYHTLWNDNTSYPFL
Assay: PBM E-score (8-mer binding enrichment) (E-score (-0.5 to 0.5)); higher = stronger / more preferred TF binding; most listed sequences are background and not binding sites
Settings: protein concentration: 200 nM; construct: GST-full length
Summary of the method: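 Detection of bound protein used fluorescent anti-GST, with scans normalised by masliner. The proteins were GST-tagged yeast transcription factors applied at about 100-200 nM to universal all-10-mer Agilent arrays made double-stranded by primer extension. Each ungapped eight-base word, pooled with its reverse complement, was scored with an E-score from the Universal PBM Analysis Suite.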

Row | Sequence | PBM E-score
1 | TAGGCTCA | -0.324
2 | CAGCACCA | -0.146
3 | GGTCCGGA | 0.413
4 | CGATGTTC | 0.127
5 | CTATACAA | -0.178
6 | TAATAATA | -0.113
7 | GCGGCGCA | 0.0927
8 | ATTGGTGC | 0.159
9 | GAACAAGA | 0.117
10 | AGGGTGTG | -0.0975
11 | GAGTCGGC | 0.123
12 | CGTCAGAA | -0.204
13 | CTCTTTCA | -0.137
14 | ACCTTCGT | 0.00021
15 | AGTGGCGC | 0.153
16 | GCGTACCA | -0.206
17 | GGCAGACC | -0.264
18 | ACGTTAGT | -0.166
19 | CCCCTTCA | -0.209
20 | TCAGCACA | -0.0715
21 | ACGGATGA | 0.267
22 | ATCCAGAT | -0.0128
23 | GTTCGGAA | 0.431
24 | GGCTAGGA | -0.301
25 | AAATGCTT | -0.177

Row | Sequence | PBM E-score
26 | AATCCGCC | 0.17
27 | CCGATCGG | 0.333
28 | CTCCATGC | -0.0192
29 | ACCAACAG | -0.0458
30 | ACCCCGCC | 0.174
31 | CCCGCCCA | 0.231
32 | CAATCTGA | -0.115
33 | CAGCTCAC | -0.193
34 | CTTTGTCC | 0.152
35 | ACTAGCCT | -0.0641
36 | ACCAGGAA | 0.0196
37 | ACACCCCT | -0.154
38 | AACCTGGT | 0.16
39 | CTCCCCCA | -0.212
40 | CCAGGGGC | -0.195
41 | CTCACCTC | -0.0849
42 | GATGACAA | 0.117
43 | AGGCGCTC | -0.0678
44 | GGCCTCAC | 0.0182
45 | AAACTGTG | -0.024
46 | ATCTGCTG | -0.174
47 | ATATGCGA | -0.0657
48 | GCGAACAC | 0.011
49 | CCTTGCAG | -0.00654
50 | TAACTCAA | -0.0897

Row | Sequence | PBM E-score
51 | CCACATTA | -0.0674
52 | ACGGAGGA | 0.198
53 | CGCGAGTA | 0.103
54 | AACGACGG | 0.211
55 | CCTCGGGC | 0.134
56 | CATTGTGA | 0.0281
57 | ACCCGGTA | 0.215
58 | TGCTTGAA | -0.0679
59 | GAACGCCA | 0.116
60 | GAGGTTCC | 0.262
61 | CCTCTTGC | -0.147
62 | CTGAGGTC | -0.219
63 | CAAGTGAC | -0.195
64 | CTGGGTTA | -0.139
65 | ACTGACTC | -0.237
66 | GATCCATA | 0.11
67 | ATAAGAAT | 0.12
68 | ATACGACA | -0.189
69 | ACATTACA | -0.16
70 | ACCAGTAA | -0.0141
71 | AAAGGCCA | -0.0757
72 | AGCAACGC | -0.00843
73 | CATAGAGC | -0.173
74 | AATGCACC | 0.196
75 | CTGGAAGC | -0.322

Row | Sequence | PBM E-score
76 | AAAGCTAT | 0.0477
77 | AATTAACC | 0.273
78 | GAAGTAAA | 0.127
79 | CTAGGCGC | -0.0403
80 | AGTGAGAC | -0.148
81 | TCATGGGA | -0.117
82 | ACTTACCT | -0.176
83 | CGCCAATA | 0.0969
84 | CGACGGCG | 0.176
85 | AATGCCTA | 0.121
86 | CACTCCAG | 0.0257
87 | ACAGCAGC | -0.0541
88 | CAGCTGAG | -0.082
89 | CTATACCA | -0.246
90 | CGAGTCAG | -0.112
91 | GGACGTAC | -0.145
92 | AGTAGTAT | -0.00713
93 | AACTTGAT | 0.00755
94 | GACCATGA | 0.0513
95 | CTAGTCGA | -0.179
96 | ACCAGACA | -0.161
97 | AAAAAGTC | 0.0911
98 | AACGACAT | -0.00323
99 | CAACGAGC | -0.165
100 | AATCGTGC | 0.28

Row | Sequence | PBM E-score
101 | GTCCAAAA | 0.166
102 | AAGGCTGC | -0.15
103 | CTTTCAGA | -0.0908
104 | TGCAGACA | -0.0945
105 | TGAATCCA | -0.11
106 | CTGAACCA | -0.0752
107 | CATTGCAG | -0.142
108 | CGACGGTA | 0.149
109 | AGTTGACC | 0.195
110 | CCAGAGAC | -0.151
111 | GATTTCTA | 0.176
112 | GCTAACCC | -0.0511
113 | CCCAGCAA | 0.0104
114 | CGAGAGGA | -0.0206
115 | ATAGCTAG | -0.171
116 | GTCAAGGA | -0.0724
117 | CAACGCTA | -0.113
118 | CTTTGGGC | 0.126
119 | CGCAACCA | 0.169
120 | ACGAATGG | 0.128
121 | AATGCGCT | -0.0583
122 | GTCGATAA | -0.0109
123 | AGATGGAC | 0.0691
124 | AAAGAAGT | -0.0364
125 | ACTGAGCA | -0.0639

Row | Sequence | PBM E-score
126 | CAACTTGA | 0.0601
127 | ATGGGGGA | -0.172
128 | GACTCATC | -0.241
129 | CAGGTGCC | -0.0993
130 | ACGCACGG | 0.271
131 | ATTCGGTA | 0.0682
132 | AAACCTAA | -0.0251
133 | GAAGAACA | 0.194
134 | ACAGGAAG | 0.0468
135 | AACGAATT | -0.00992
136 | GAAGATTA | 0.03
137 | TCATCACA | -0.206
138 | ACACAGCT | -0.195
139 | TAGGTGCA | -0.151
140 | CCAACAAA | -0.0869
141 | AAATGTGC | 0.202
142 | TGCGACCA | 0.174
143 | GGCTCCGA | 0.227
144 | CAGGGAAC | -0.133
145 | AAGAACCA | -0.0468
146 | AATACGCT | -0.082
147 | AATTCAGT | -0.113
148 | AGCCAAAG | -0.254
149 | CGTGCAGA | -0.148
150 | CCGTGTGA | 0.137

Row | Sequence | PBM E-score
151 | TCTCGGAA | 0.444
152 | AATTAAGG | -0.221
153 | CATTCGAG | -0.0138
154 | ACTAATAT | 0.038
155 | AACGCAAC | 0.167
156 | ATCGGTCG | 0.139
157 | GGTCTACA | -0.0795
158 | AAAGCTCG | 0.0308
159 | GTAAATGA | 0.0457
160 | ATTCGGAC | 0.275
161 | GGCACCAA | 0.172
162 | GATGTAGA | -0.0944
163 | CATATGGC | -0.0414
164 | ACATGAAA | -0.147
165 | CAGATGGC | -0.0668
166 | GGTCACTA | -0.00881
167 | GTTGGTGA | 0.0595
168 | ATTTGAGG | -0.0861
169 | AATTACAT | 0.089
170 | CGGGACAA | 0.213
171 | TAATGATA | 0.132
172 | GGTGCCAC | -0.0915
